PubChem BioAssay (NCATS)
Inconclusive results, whose numbers are uncertain, are shown with a selection of clear calls. Potencies of inconclusive entries are left out as doubtful fits. The source made the active and inactive calls. The call rests on the fitted dose curve; in most records, active means well fitted curve in the direction sought with a large enough effect; inconclusive means small, poorly fitted or top-dose-only effect, or another doubt; inactive means no such curve, though single readings can be large; an effect the other way counts as inactive or inconclusive.

Legend:
[1] = system: Nanoluciferase (engineered Oplophorus gracilirostris luciferase); assay: Primary Nanoluciferase (NLuc) qHTS assay for identification of artifact compounds. (AID 1845222)
Procedure, shortened: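 Compounds are pinned into diluted (1:55) conditioned medium of NLuc-expressing S16 cells and held 15 min at room temperature protected from light. Nano-Glo substrate follows, and luminescence is read 5 min later.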

[2] = Quantitative High-Throughput drug screen in 47 multiple myeloma cell lines against the NCATS MIPE library collection: FR4_PLB cell viability assay (AID 1918924; further: nearly all actives have a fitted effect of over 35% in size)
Procedure, shortened: (§1)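 Myeloma cells (500 per well) were exposed to MIPE 4.0 compounds by pin transfer and incubated 48 hours at 37C, 5% CO2. Viability was read as ATP by CellTiter-Glo luminescence, normalised to DMSO (100%) and media-only (0%) wells.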

[3] = Quantitative High-Throughput drug screen in 47 multiple myeloma cell lines against the NCATS MIPE library collection: Delta47_JCRB cell viability assay (AID 1918925; further: nearly all actives have a fitted effect of over 45% in size); details: Delta47 myeloma viability, CellTiter-Glo ATP, 48 h; viability (% of DMSO): at 45.8 µM (top of the series)
Procedure, shortened: (§2)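 We plated 500 myeloma cells per well, pinned in MIPE 4.0 compounds, and incubated for 48 hours at 37C. ATP was then quantified with CellTiter-Glo, with DMSO and media-only wells defining 100% and 0%.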

[4] = Quantitative High-Throughput drug screen in 47 multiple myeloma cell lines against the NCATS MIPE library collection: EJM_DSMZ cell viability assay (AID 1918926; further: nearly all actives have a fitted effect of over 30% in size)
Procedure, shortened: as §2

[5] = Quantitative High-Throughput drug screen in 47 multiple myeloma cell lines against the NCATS MIPE library collection: ARP1_JJKsccF8 cell viability assay (AID 1918928; further: nearly all actives have a fitted effect of over 40% in size)
Procedure, shortened: (§3)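 500 cells/well; MIPE 4.0 library pinned in; 48 h, 37 °C, 5% CO2; CellTiter-Glo ATP luminescence. Controls: DMSO = 100% viability, medium only = 0%.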

[6] = Quantitative High-Throughput drug screen in 47 multiple myeloma cell lines against the NCATS MIPE library collection: ARD_JJKsccE7 cell viability assay (AID 1918929); details: ARD myeloma cell line viability, CellTiter-Glo, 48 h; viability: at 45.8 µM (top of the series)
Procedure, shortened: as §2

[7] = Quantitative High-Throughput drug screen in 47 multiple myeloma cell lines against the NCATS MIPE library collection: Karpas620_DSMZ cell viability assay (AID 1918959); details: Karpas620 myeloma viability, CellTiter-Glo ATP luminescence, 48 h; viability (% of DMSO): at 45.8 µM (top of the series); further: nearly all actives have a fitted effect of over 30% in size
Procedure, shortened: as §1

[8] = Quantitative High-Throughput drug screen in 47 multiple myeloma cell lines against the NCATS MIPE library collection: Karpas417_ECACC cell viability assay (AID 1918961); details: Karpas417 myeloma viability, CellTiter-Glo ATP luminescence, 48 h; viability (% of DMSO): at 45.8 µM (top of the series)
Procedure, shortened: (§4)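 CellTiter-Glo ATP luminescence gave viability after 48 h compound treatment at 37C of 500 multiple myeloma cells per well. Normalisation used DMSO-only wells as 100% and media-only wells as 0% viability; primary qHTS of approved and investigational drugs.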

[9] = Quantitative High-Throughput drug screen in 47 multiple myeloma cell lines against the NCATS MIPE library collection: KHM11_PLB cell viability assay (AID 1918962); details: KHM11 myeloma cell viability, CellTiter-Glo ATP luminescence, 48 h; viability, % of DMSO control: at 45.8 µM (top of the series); further: nearly all actives have a fitted effect of over 35% in size
Procedure, shortened: as §1

[10] = Quantitative High-Throughput drug screen in 47 multiple myeloma cell lines against the NCATS MIPE library collection: JIM3_ECACC cell viability assay (AID 1918963; further: nearly all actives have a fitted effect of over 35% in size)
Procedure, shortened: as §1

[11] = Quantitative High-Throughput drug screen in 47 multiple myeloma cell lines against the NCATS MIPE library collection: JIM1_ECACC cell viability assay (AID 1918964); details: JIM1 myeloma viability, CellTiter-Glo ATP luminescence, 48 h; viability (% of DMSO): at 45.8 µM (top of the series)
Procedure, shortened: as §2

[12] = Quantitative High-Throughput drug screen in 47 multiple myeloma cell lines against the NCATS MIPE library collection: INA6_PLB cell viability assay (AID 1918965; further: nearly all actives have a fitted effect of over 55% in size); details: INA6 myeloma viability, CellTiter-Glo ATP luminescence, 48 h; viability (% of control): at 45.8 µM (top of the series)
Procedure, shortened: as §4

[13] = Quantitative High-Throughput drug screen in 47 multiple myeloma cell lines against the NCATS MIPE library collection: JJN3_DSMZ cell viability assay (AID 1918966; further: nearly all actives have a fitted effect of over 50% in size); details: JJN3 myeloma cells viability, CellTiter-Glo ATP, 48 h; viability, % of DMSO: at 45.8 µM (top of the series)
Procedure, shortened: as §2

[14] = Quantitative High-Throughput drug screen in 47 multiple myeloma cell lines against the NCATS MIPE library collection: Karpas25_ECACC cell viability assay (AID 1918968; further: nearly all actives have a fitted effect of over 35% in size); details: Karpas25 myeloma viability, CellTiter-Glo ATP, 48 h; viability (% of control): at 45.8 µM (top of the series)
Procedure, shortened: as §2

[15] = Primary fluorescence-based thiol-reactive (MSTI) qHTS assay for identification of artifact compounds. (AID 1845221);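 further: thiol-reactive compounds lower the probe fluorescence signal; nearly all actives have a fitted effect of over 65% in size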
Procedure, shortened: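 Compounds were incubated 1 h at room temperature in the dark with the MSTI probe (4 uM) in PBS pH 7.4, 2% DMSO. Signals were normalized between Acetyl-MSTI and MSTI.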

[16] = Primary redox qHTS assay for identification of artifact compounds. (AID 1845223)
Procedure, shortened: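 Redox-cycling detection via DTT (250 uM final) oxidation coupled to Amplex Red (25 uM)/HRP (250 mU/mL) in HBSS. 15 min preincubation plus 30 min after DTT, room temperature. Ex/Em 525/598 nm; 4-parameter Hill fit against DMSO and 10 uM DA3003.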

[17] = Quantitative High-Throughput drug screen in 47 multiple myeloma cell lines against the NCATS MIPE library collection: AMO1_DSMZ cell viability assay (AID 1918927; further: nearly all actives have a fitted effect of over 30% in size)
Procedure, shortened: as §2

[18] = Quantitative High-Throughput drug screen in 47 multiple myeloma cell lines against the NCATS MIPE library collection: KMM1_JCRB cell viability assay (AID 1918960); details: KMM1 myeloma viability, CellTiter-Glo ATP luminescence, 48 h; viability (% of DMSO): at 45.8 µM (top of the series); further: nearly all actives have a fitted effect of over 30% in size
Procedure, shortened: as §3

[19] = Quantitative High-Throughput drug screen in 47 multiple myeloma cell lines against the NCATS MIPE library collection: KMS27_JCRB cell viability assay (AID 1918970); details: KMS27 myeloma cells, CellTiter-Glo ATP viability, 48 h; viability (% of DMSO): at 45.8 µM (top of the series); further: nearly all actives have a fitted effect of over 30% in size
Procedure, shortened: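 CellTiter-Glo luminescence after 48 h drug exposure at 37 °C; 500 cells/well, 1536-well format, pin-tool compound addition; DMSO = 100%, media-only = 0% viability.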

[20] = Quantitative High-Throughput drug screen in 47 multiple myeloma cell lines against the NCATS MIPE library collection: H1112_PLB cell viability assay (AID 1918967; further: nearly all actives have a fitted effect of over 30% in size)
Procedure, shortened: as §2
Potency means the concentration at half of the fitted maximal effect; tags describe the fitted curve by direction and shape.

## Cc1ccnc(NS(=O)(=O)c2ccc(NC(=O)Nc3ccc(S(=O)(=O)Nc4nccc(C)n4)cc3)cc2)n1
[1]
  Potency: inconclusive [inhibitor, single point]
[2]
  Potency: inconclusive [cytotoxic, full curve, poor fit]
[3]
  Potency: inconclusive [cytotoxic, single point]
[4]
  Potency: inconclusive [cytotoxic, single point]
[5]
  Potency: inactive
[6]
  Potency: active: 23.5 µM
[7]
  Potency: active: 16.6 µM
[8]
  Potency: inconclusive [cytotoxic, partial curve, poor fit]
[9]
  Potency: inconclusive [cytotoxic, single point]
[10]
  Potency: inconclusive [cytotoxic, partial curve, poor fit]
[11]
  Potency: active: 16.6 µM
[12]
  Potency: inconclusive [cytotoxic, partial curve, poor fit]
[13]
  Potency: inconclusive [cytotoxic, single point]
[14]
  Potency: inconclusive [cytotoxic, partial curve, poor fit]

## Cc1cnc(Nc2ccc(OCCN3CCCC3)cc2)nc1Nc1cccc(S(=O)(=O)NC(C)(C)C)c1
[15]
  Potency: inconclusive [inhibitor, full curve]
[16]
  Potency: inconclusive [activator, partial curve, poor fit]
[2]
  Potency: inactive
[3]
  Potency: inconclusive [cytotoxic, full curve, poor fit]
[4]
  Potency: inconclusive [cytotoxic, full curve, poor fit]
[17]
  Potency: active: 0.418 µM
[5]
  Potency: inconclusive [cytotoxic, full curve, poor fit]
[6]
  Potency: inconclusive [cytotoxic, full curve, poor fit]
[18]
  Potency: inconclusive [cytotoxic, full curve, poor fit]
[9]
  Potency: inconclusive [cytotoxic, full curve, poor fit]
[11]
  Potency: inconclusive [cytotoxic, full curve, poor fit]
[12]
  Potency: inconclusive [cytotoxic, full curve, poor fit]
[14]
  Potency: inconclusive [cytotoxic, full curve, poor fit]
[19]
  Potency: inconclusive [cytotoxic, full curve, poor fit]

## OC[C@H]1O[C@H](O[C@]2(CCl)O[C@H](CCl)[C@@H](O)[C@@H]2O)[C@H](O)[C@@H](O)[C@H]1Cl
[15]
  Potency: inactive

## CN(C)c1ccc(Nc2nc(N)n(C(=O)c3c(F)cccc3F)n2)cc1
[15]
  Potency: active: 1.34 µM
[2]
  Potency: inconclusive [cytotoxic, single point]
[5]
  Potency: inconclusive [cytotoxic, partial curve]
[6]
  Potency: active: 20.9 µM
[7]
  Potency: inconclusive [cytotoxic, single point]
[20]
  Potency: inconclusive [cytotoxic, single point]
[14]
  Potency: active: 26.4 µM
[19]
  Potency: active: 23.5 µM

## O=C(NCc1ccccc1)c1csc(Nc2ccncn2)n1
[15]
  Potency: inactive
[3]
  Potency: active: 14.8 µM
[6]
  Potency: active: 10.5 µM
[7]
  Potency: active: 6.62 µM
[8]
  Potency: active: 10.5 µM
[9]
  Potency: active: 20.9 µM
[11]
  Potency: active: 6.62 µM
[19]
  Potency: active: 7.43 µM

## CC(=O)SCC(CC(=O)c1ccc(C)cc1)C(=O)O (stereo not drawn)
[15]
  Potency: inactive

## Cc1c(NC(=O)c2ccc(C(C)(C)C)cc2)cccc1-c1cn(C)c(=O)c(Nc2ccc(C(=O)N3CCOCC3)cc2)n1
[15]
  Potency: inconclusive [inhibitor, partial curve, poor fit]
[3]
  Potency: active: 23.5 µM
[4]
  Potency: active: 18.7 µM
[17]
  Potency: inconclusive [cytotoxic, partial curve, poor fit]
[5]
  Potency: inconclusive [cytotoxic, partial curve, poor fit]
[6]
  Potency: inconclusive [cytotoxic, partial curve, poor fit]
[7]
  Potency: active: 9.35 µM
[8]
  Potency: inconclusive [rising, partial curve, poor fit]
[9]
  Potency: inactive
[10]
  Potency: active: 13.2 µM
[13]
  Potency: active: 14.8 µM
[20]
  Potency: inconclusive [cytotoxic, partial curve]
[19]
  Potency: inconclusive [cytotoxic, full curve, poor fit]

## CC(C)[C@H](CO)Nc1nc(Nc2ccc(C(=O)O)c(Cl)c2)c2ncn(C(C)C)c2n1
[15]
  Potency: inconclusive [inhibitor, full curve, poor fit]
[2]
  Potency: inconclusive [cytotoxic, partial curve, poor fit]
[4]
  Potency: inconclusive [cytotoxic, single point]
[17]
  Potency: inconclusive [cytotoxic, partial curve, poor fit]
[5]
  Potency: inconclusive [cytotoxic, partial curve, poor fit]
[6]
  viability: inconclusive: 5.41% [cytotoxic]
[7]
  Potency: inconclusive [cytotoxic, partial curve, poor fit]
[18]
  Potency: inconclusive [cytotoxic, partial curve, poor fit]
[10]
  Potency: inconclusive [cytotoxic, partial curve, poor fit]
[11]
  Potency: inconclusive [cytotoxic, partial curve, poor fit]
[13]
  Potency: inconclusive [cytotoxic, single point]
[20]
  Potency: inconclusive [cytotoxic, single point]
[14]
  Potency: inconclusive [cytotoxic, partial curve, poor fit]
[19]
  Potency: inconclusive [cytotoxic, partial curve, poor fit]
